Some of the results follow.

The experiment concerns HSkMC (human skeletal muscle cells). Description: cytotoxicity call (relative viability < 0.9). Particulars: 10 µM.
Regarding `O=C(C[C@@H]1CC[C@H]2[C@@H](COC[C@@H](O)CN2S(=O)(=O)c2ccccc2)O1)N1CCc2ccccc2C1`, the cytotoxicity call is “inactive”.
For the compound `CN(C)C(=O)c1ccc(-c2cccc(-c3nc(C(=O)NCc4ccccc4)cc4c3[C@@H](CCO)N([S@@](=O)C(C)(C)C)C4)c2)cc1`, the cytotoxicity call was “active”.
On to `C[C@H]1CN([C@@H](C)CO)C(=O)c2cc(NS(=O)(=O)c3cn(C)cn3)ccc2O[C@@H]1CN(C)CC1CCCCC1`, for which the cytotoxicity call was “inactive”.
The result for `CC(C)CN1C(=O)[C@@]2(c3ccc([N+](=O)[O-])cc3)CC(=O)N(CC3C4CC5CC(C4)CC3C5)[C@@H]2c2ccc(CO)cc21` (some centres not stated) reads “inactive”.
On to `C[C@@H]1CN([C@H](C)CO)S(=O)(=O)c2ccc(-c3cncnc3)cc2O[C@@H]1CN(C)C(=O)CN(C)C`, for which the cytotoxicity call is “inactive”.
The result for `C[C@@H]1CN([C@H](C)CO)C(=O)c2cccc(NS(=O)(=O)c3cccs3)c2O[C@@H]1CN(C)S(=O)(=O)c1ccc(F)cc1` reads “inactive”; that for `CO[C@H](CN(C)C(=O)Nc1ccc(C(F)(F)F)cc1)[C@@H](C)CN(Cc1ccccc1Cl)[C@@H](C)CO`, “inactive”; that for `CNCc1cccc2ccccc12`, “inactive”.
As to `O=C1C[C@]2(c3ccc([N+](=O)[O-])cc3)C(=O)N(CC(F)(F)F)c3cc(CO)ccc3[C@H]2N1CC12CC3CC(CC(C3)C1)C2`, the cytotoxicity call was “inactive”.
In the case of `C[C@@H]1CN([C@H](C)CO)C(=O)c2cc(C#Cc3cccc(F)c3)cnc2O[C@@H]1CN(C)C(=O)C1CCOCC1`, the cytotoxicity call was “inactive”.
With `COc1ccc(NC(=O)N(C)C[C@H]2OCCCC[C@@H](C)Oc3ccc(NS(=O)(=O)c4cccs4)cc3C(=O)N([C@H](C)CO)C[C@H]2C)cc1`, the cytotoxicity call is “inactive”.
On to `COc1cccc(-c2cn(CC[C@@H]3CC[C@H](NC(=O)CN(C)C)[C@H](CO)O3)nn2)c1`, for which the cytotoxicity call is “inactive”.
Under `C[C@H]1CCCCO[C@H](CN(C)Cc2ccncc2)[C@@H](C)CN([C@@H](C)CO)C(=O)c2cc(NC(=O)Nc3cccc4ccccc34)ccc2O1` stands “inactive”; under `CC(C)(C)OC(=O)C[C@H]1CC=CC[C@@H](CC(=O)NCCO)C(=O)N[C@@H](Cc2ccccc2)COC1=O`, “inactive”; under `Cc1noc(C)c1NC(=O)Nc1cccc2c1O[C@@H](CN(C)Cc1ccc(Oc3ccccc3)cc1)[C@H](C)CN([C@@H](C)CO)C2=O`, “inactive”.
As for `CCCNC(=O)N1C[C@]2(CN(C2)S(=O)(=O)c2ccccc2)c2c(n(c3cc(ccc23)OC)C)[C@@H]1CO`, the cytotoxicity call was “inactive”.
On to `COc1ccc(S(=O)(=O)Nc2ccc3c(c2)C(=O)N([C@H](C)CO)C[C@H](C)[C@H](CN(C)C(=O)c2ccccc2)OCCCC[C@H](C)O3)cc1`, for which the cytotoxicity call was “inactive”.
On to `Cc1noc(C)c1NC(=O)Nc1ccc2c(c1)C(=O)N([C@@H](C)CO)C[C@@H](C)[C@@H](CN(C)C(=O)Nc1ccc(C(F)(F)F)cc1)OCCCC[C@@H](C)O2`, for which the cytotoxicity call was “inactive”.
Under `CC(C)NC(=O)N(C)C[C@@H]1Oc2c(NC(=O)C3CCCCC3)cccc2C(=O)N([C@H](C)CO)C[C@H]1C` stands “inactive”.
Regarding `C[C@H](CO)N1C[C@H](C)[C@@H](CN(C)S(C)(=O)=O)Oc2ccc(NC(=O)NC3CCCCC3)cc2CC1=O`, the cytotoxicity call was “inactive”.
Consider `O=C(C[C@H]1CC[C@H]2[C@@H](COC[C@@H](O)CN2S(=O)(=O)c2ccccc2)O1)NCc1ccc2c(c1)OCO2`, for which the cytotoxicity call was “inactive”.
For `C[C@@H]1CN([C@H](C)CO)C(=O)c2cc(NC(=O)Nc3ccc(C(F)(F)F)cc3)ccc2O[C@H]1CN(C)C(=O)Nc1ccc2c(c1)OCO2`, the cytotoxicity call was “inactive”.
Consider `C[C@H](CO)N1C[C@H](C)[C@@H](CN(C)S(=O)(=O)c2cn(C)cn2)Oc2ccc(NC(=O)CCC(F)(F)F)cc2C1=O`, for which the cytotoxicity call is “inactive”.
Consider `C[C@@H]1O[C@@H](O[C@@H]2CC[C@@]3(C)[C@@H](CC[C@]4(C)[C@@H]3CC=C3[C@@H]5CC(C)(C)CC[C@]5(C(=O)O[C@@H]5O[C@H](CO[C@@H]6O[C@H](CO)[C@@H](O)[C@H](O)[C@H]6O)[C@@H](O)[C@H](O)[C@H]5O)CC[C@]34C)[C@]2(C)CO)[C@H](O)[C@H](O[C@@H]2OC[C@@H](O)[C@H](O)[C@H]2O)[C@H]1O`, for which the cytotoxicity call is “inactive”.
Under `CCCCC(O)c1ccccc1` (configuration not stated) stands “inactive”; under `C[C@@H]1CCCCO[C@@H](CN(C)C(=O)c2ccccc2)[C@@H](C)CN([C@@H](C)CO)C(=O)c2cc(NS(=O)(=O)c3ccc(Cl)cc3)ccc2O1`, “inactive”; under `O=C(/C=C/c1cccc(-c2cn(CC(=O)N3CCC4(CC3)C(=O)NCN4c3ccccc3)nn2)c1)NO`, “inactive”.

(Values after the antibiotic and cytotoxicity screens of Wong et al. (2023).)
